Reference: PMC4453211
No constants are given. Whether binding was seen depends on the method and setting. In cells and extracts the contact can be indirect. Some binding calls cover weakened binding; strength is not graded here. For some of these results: Sequences can lack the tags named with a protein.

T1: human 12-LOX, full-length cDNA, expressed in CHO cells (human) (UniProt P18054)
T1 sequence: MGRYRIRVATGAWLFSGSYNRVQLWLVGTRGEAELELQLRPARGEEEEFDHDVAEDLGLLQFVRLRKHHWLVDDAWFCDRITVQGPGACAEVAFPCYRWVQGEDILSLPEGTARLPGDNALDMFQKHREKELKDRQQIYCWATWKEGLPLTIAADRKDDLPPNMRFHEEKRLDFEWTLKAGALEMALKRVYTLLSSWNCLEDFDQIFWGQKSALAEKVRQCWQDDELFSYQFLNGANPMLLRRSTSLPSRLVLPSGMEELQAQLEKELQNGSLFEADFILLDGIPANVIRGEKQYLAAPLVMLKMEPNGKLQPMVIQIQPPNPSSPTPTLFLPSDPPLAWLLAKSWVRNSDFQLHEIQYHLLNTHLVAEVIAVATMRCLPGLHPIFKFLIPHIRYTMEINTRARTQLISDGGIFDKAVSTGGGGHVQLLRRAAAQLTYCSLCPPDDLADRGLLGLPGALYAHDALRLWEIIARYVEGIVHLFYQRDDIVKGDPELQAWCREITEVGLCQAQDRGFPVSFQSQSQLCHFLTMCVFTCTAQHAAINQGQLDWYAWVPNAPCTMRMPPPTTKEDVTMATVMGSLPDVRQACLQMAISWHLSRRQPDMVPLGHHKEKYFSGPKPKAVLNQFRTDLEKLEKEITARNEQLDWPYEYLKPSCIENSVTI


Key:
[1] = target: T1, human 12-LOX, full-length cDNA, expressed in CHO cells (human); assay: co-IP; CHO transfectants with β4 constructs alone or with 12-LOX; lysis in 1 % Triton X-100, 0.5 % NP-40, 150 mM NaCl, 10 mM Tris pH 7.4; IP with anti-β4 mAbs (3E1, 439-9B, 450-11A) or anti-12-LOX antibody and protein G Sepharose at 4 °C; Western blot
[2] = target: integrin β4 subunit (human (endogenous in A431)) (UniProt P16144); assay: co-IP; A431 cells and A431 12-LOX transfectants, serum-starved, stimulated with anti-β4 mAb 3E1 (5 μg/ml, 5-90 min) or grown on laminin; lysis in 1 % Triton X-100, 0.5 % NP-40, 150 mM NaCl, 10 mM Tris pH 7.4; IP with anti-12-LOX, anti-β1 or anti-β4 antibody and protein G Sepharose at 4 °C; Western blot

binding [1]	binding [2]	Molecule
binds		full-length, wild-type human integrin β4 subunit (pRC-CMV-β4) (from UniProt P16144-2 28-1752) (receptor)
	binds	human 12-LOX, full-length cDNA, over-expressed in A431 cells (enzyme, UniProt P18054 1-663) MGRYRIRVATGAWLFSGSYNRVQLWLVGTRGEAELELQLRPARGEEEEFDHDVAEDLGLLQFVRLRKHHWLVDDAWFCDRITVQGPGACAEVAFPCYRWVQGEDILSLPEGTARLPGDNALDMFQKHREKELKDRQQIYCWATWKEGLPLTIAADRKDDLPPNMRFHEEKRLDFEWTLKAGALEMALKRVYTLLSSWNCLEDFDQIFWGQKSALAEKVRQCWQDDELFSYQFLNGANPMLLRRSTSLPSRLVLPSGMEELQAQLEKELQNGSLFEADFILLDGIPANVIRGEKQYLAAPLVMLKMEPNGKLQPMVIQIQPPNPSSPTPTLFLPSDPPLAWLLAKSWVRNSDFQLHEIQYHLLNTHLVAEVIAVATMRCLPGLHPIFKFLIPHIRYTMEINTRARTQLISDGGIFDKAVSTGGGGHVQLLRRAAAQLTYCSLCPPDDLADRGLLGLPGALYAHDALRLWEIIARYVEGIVHLFYQRDDIVKGDPELQAWCREITEVGLCQAQDRGFPVSFQSQSQLCHFLTMCVFTCTAQHAAINQGQLDWYAWVPNAPCTMRMPPPTTKEDVTMATVMGSLPDVRQACLQMAISWHLSRRQPDMVPLGHHKEKYFSGPKPKAVLNQFRTDLEKLEKEITARNEQLDWPYEYLKPSCIENSVTI

The next lines start with the molecule.

Molecule	binding [1]	binding [2]
human platelet-type 12-lipoxygenase (enzyme, UniProt P18054 1-663) MGRYRIRVATGAWLFSGSYNRVQLWLVGTRGEAELELQLRPARGEEEEFDHDVAEDLGLLQFVRLRKHHWLVDDAWFCDRITVQGPGACAEVAFPCYRWVQGEDILSLPEGTARLPGDNALDMFQKHREKELKDRQQIYCWATWKEGLPLTIAADRKDDLPPNMRFHEEKRLDFEWTLKAGALEMALKRVYTLLSSWNCLEDFDQIFWGQKSALAEKVRQCWQDDELFSYQFLNGANPMLLRRSTSLPSRLVLPSGMEELQAQLEKELQNGSLFEADFILLDGIPANVIRGEKQYLAAPLVMLKMEPNGKLQPMVIQIQPPNPSSPTPTLFLPSDPPLAWLLAKSWVRNSDFQLHEIQYHLLNTHLVAEVIAVATMRCLPGLHPIFKFLIPHIRYTMEINTRARTQLISDGGIFDKAVSTGGGGHVQLLRRAAAQLTYCSLCPPDDLADRGLLGLPGALYAHDALRLWEIIARYVEGIVHLFYQRDDIVKGDPELQAWCREITEVGLCQAQDRGFPVSFQSQSQLCHFLTMCVFTCTAQHAAINQGQLDWYAWVPNAPCTMRMPPPTTKEDVTMATVMGSLPDVRQACLQMAISWHLSRRQPDMVPLGHHKEKYFSGPKPKAVLNQFRTDLEKLEKEITARNEQLDWPYEYLKPSCIENSVTI		binds
headless, truncated human integrin β4 (pCMV-β4 Δ70-660), extracellular sequences replaced by a c-myc epitope tag (domain or fragment, UniProt P16144-2 28-69; P16144-2 661-1752) NRCKKAPVKSCTECVRVDKDCAYCTDEMFRDRRCNTQAELLALKRAEEVVVRCSFRDEDDDCTYSYTMEGDGAPGPNSTVLVHKKKDCPPGSFWWLIPLLLLLLPLLALLLLLCWKYCACCKACLALLPCCNRGHMVGFKEDHYMLRENLMASDHLDTPMLRSGNLKGRDVVRWKVTNNMQRPGFATHAASINPTELVPYGLSLRLARLCTENLLKPDTRECAQLRQEVEENLNEVYRQISGVHKLQQTKFRQQPNAGKKQDHTIVDTVLMAPRSAKPALLKLTEKQVEQRAFHDLKVAPGYYTLTADQDARGMVEFQEGVELVDVRVPLFIRPEDDDEKQLLVEAIDVPAGTATLGRRLVNITIIKEQARDVVSFEQPEFSVSRGDQVARIPVIRRVLDGGKSQVSYRTQDGTAQGNRDYIPVEGELLFQPGEAWKELQVKLLELQEVDSLLRGRQVRRFHVQLSNPKFGAHLGQPHSTTIIIRDPDELDRSFTSQMLSSQPPPHGDLGAPQNPNAKAAGSRKIHFNWLPPSGKPMGYRVKYWIQGDSESEAHLLDSKVPSVELTNLYPYCDYEMKVCAYGAQGEGPYSSLVSCRTHQEVPSEPGRLAFNVVSSTVTQLSWAEPAETNGEITAYEVCYGLVNDDNRPIGPMKKVLVDNPKNRMLLIENLRESQPYRYTVKARNGAGWGPEREAIINLATQPKRPMSIPIIPDIPIVDAQSGEDYDSFLMYSDDVLRSPSGSQRPSVSDDTEHLVNGRMDFAFPGSTNSLHRMTTTSAAAYGTHLSPHVPHRVLSTSSTLTRDYNSLTRSEHSHSTTLPRDYSTLTSVSSHDSRLTAGVPDTPTRLVFSALGPTSLRVSWQEPRCERPLQGYSVEYQLLNGGELHRLNIPNPAQTSVVVEDLLPNHSYVFRVRAQSQEGWGREREGVITIESQVHPQSPLCPLPGSAFTLSTPSAPGPLVFTALSPDSLQLSWERPRRPNGDIVGYLVTCEMAQGGGPATAFRVDGDSPESRLTVPGLSENVPYKFKVQARTTEGFGPEREGIITIESQDGGPFPQLGSRAGLFQHPLQSEYSSITTTHTSATEPFLVDGLTLGAQHLEAGGSLTRHVTQEFVSRTLTTSGTLSTHMDQQFFQT	binds	
